Assay results taken from article PMC10668032.
Some of the results follow. At the low end of the ranking, values are background and their order means little.

The sequences below were run against SIX1 homeodomain (reference allele) (UniProt Q15475) (assay: universal protein binding microarray). Settings: Universal all-10-mer PBM (8x60K, AMADID 030236), 300 nM GST-tagged protein, Alexa Fluor 488 anti-GST; buffer, salt, pH and temperature not stated; high values mean tight binding; most listed sequences are background and not binding sites; double strand, one strand shown.

Row | Sequence | binding signal [E-score]
1 | TCGGTGCA | -0.0969
2 | ATACATAG | 0.177
3 | CCATCCTA | 0.0631
4 | CCGGAGCG | -0.185
5 | GGTGTTAC | 0.269
6 | ACCAACTG | 0.000585
7 | CCAATAGC | -0.0933
8 | GCAACGAC | -0.13
9 | ATCGCGGG | 0.291
10 | ACCCACGG | -0.0163
11 | GTAAGTTA | -0.213
12 | AGTGGAGA | -0.0298
13 | CTGGCATA | 0.228
14 | TATGTTCA | 0.0594
15 | AGGATGTC | 0.0999
16 | CCTTTCGA | -0.0682
17 | CGCCCTGC | 0.0146
18 | AGTAAACC | 0.0274
19 | AAGAGCAC | -0.0323
20 | ATACCCCC | 0.454
21 | GCTATCCC | 0.281
22 | AAGCCCGG | -0.035

Row | Sequence | binding signal [E-score]
23 | CCACGGGA | -0.0263
24 | GAAGCAGA | -0.158
25 | TACCCGGA | 0.332
26 | GTTACCTA | -0.0619
27 | GCTGCATA | 0.0234
28 | AAAACAAT | -0.0863
29 | CTGCGTAA | -0.278
30 | TAAATCCA | -0.0787
31 | AGCCTGAG | -0.0766
32 | CTAACTAC | 0.00143
33 | ACTGGTAG | 0.0162
34 | GTGGGTTA | -0.00241
35 | CAAGTTGG | -0.139
36 | GCCCGTAA | -0.221
37 | CATCGTCG | -0.249
38 | TCTGGCCA | -0.0767
39 | ATGCTTAG | -0.245
40 | AATCCAGA | 0.0874
41 | AGGACGGA | -0.0723
42 | AGCTATGC | -0.117
43 | CTTTCGCA | -0.279
44 | CAGCGTAC | -0.146

Row | Sequence | binding signal [E-score]
45 | AAGGGATA | 0.37
46 | ATAATAGA | -0.0292
47 | ACGTGGGC | -0.0255
48 | ACAAACCA | -0.174
49 | CTTTGTAA | -0.11
50 | AGCATGCG | 0.0616
51 | CAACCCGA | -0.0372
52 | GATAATGA | 0.174
53 | CGAATTGC | -0.319
54 | TACTGAAA | 0.0387
55 | AATTATCG | -0.0423
56 | CAGGGGGA | 0.106
57 | TAACTCAA | -0.238
58 | CGCTCCAC | -0.247
59 | CACACTGC | -0.173
60 | GTGATAAC | 0.116
61 | AGGTTTTG | -0.206
62 | ACTTGATC | 0.269
63 | CGGGATCC | 0.393
64 | ATTTCAAC | -0.11
65 | CTGAGTAC | -0.0488
66 | AATCTATG | 0.0729

Row | Sequence | binding signal [E-score]
67 | ACATGACC | -0.144
68 | GAAGCAGC | -0.228
69 | GTTTTGAA | -0.196
70 | ACAGAAAT | -0.0575
71 | AAACAATG | -0.35
72 | CCTAATAA | -0.0836
73 | GAGTCCAA | -0.197
74 | AATATAGA | 0.227
75 | AGTTGTCA | -0.0631
76 | GATCATCA | 0.34
77 | GCCGGCAA | -0.292
78 | ACGGCATG | -0.0243
79 | ACGTCGAC | -0.226
80 | CCCGGGGC | 0.0596
81 | CCAACTGA | 0.0817
82 | CAGTACCA | -0.0671
83 | ACGCGAAT | 0.0356
84 | CATAAGAA | 0.178
85 | CCTATAGA | 0.157
86 | ATATATGG | 0.334
87 | ATAGTGCC | 0.0903
88 | AGATAGTA | 0.24

Row | Sequence | binding signal [E-score]
89 | GAGCTATA | 0.0653
90 | CCCCCTCA | -0.0728
91 | GCACGGCC | -0.154
92 | GTAGGCTA | 0.0848
93 | AGAAACTC | -0.242
94 | GAGGAGGA | 0.0908
95 | CGCACAGA | -0.063
96 | ATTTTAAA | -0.0377
97 | CCTATTCA | -0.0425
98 | TCCCCAAA | 0.00539
99 | AATGTTAG | -0.283
100 | AAATAAGA | -0.00547
101 | AAGGGACG | -0.16
102 | AGCGGTTG | -0.0108
103 | AAGCTTAC | -0.286
104 | AGGCAGAT | 0.258
105 | CACAGCCC | -0.295
106 | GTATCACA | 0.476
107 | AAATAGGC | -0.164
108 | TACGTCCA | -0.195
109 | TGTCCGAA | -0.129
